{"source": "PubChem BioAssay AID2147", "about": "(National Center for Advancing Translational Sciences (NCATS), 2009)", "note": "Out of some 230,000 compounds screened, about 3,600 (1.6%) were called active. Inconclusive means that the source gave no clear call. Such entries were picked first, then a sample of the others. Calls come from the whole dose curve; as a rule, active = well fitted inhibition curve with a large enough effect (not every such curve was filed as active); inconclusive = small, poorly fitted or top-dose-only effect, or another doubt; inactive = no such curve, though single readings can be large or run the other way. A potency beside an inconclusive call is a rough fit, not a confirmed value. Note: nearly all actives have a fitted effect of over 50% in size. Potency is the fitted concentration of half-maximal effect; tags give direction and shape of the fitted curve.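 Throughout, for activity change, negative = inhibition: 0% = wells with enzyme and -100% = buffer wells without enzyme.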", "data": [{"target": "Lysine-specific demethylase 4E (Homo sapiens) (UniProt B2RXH2)", "sequence (B2RXH2 whole entry, looked up, the tested form may be a part)": "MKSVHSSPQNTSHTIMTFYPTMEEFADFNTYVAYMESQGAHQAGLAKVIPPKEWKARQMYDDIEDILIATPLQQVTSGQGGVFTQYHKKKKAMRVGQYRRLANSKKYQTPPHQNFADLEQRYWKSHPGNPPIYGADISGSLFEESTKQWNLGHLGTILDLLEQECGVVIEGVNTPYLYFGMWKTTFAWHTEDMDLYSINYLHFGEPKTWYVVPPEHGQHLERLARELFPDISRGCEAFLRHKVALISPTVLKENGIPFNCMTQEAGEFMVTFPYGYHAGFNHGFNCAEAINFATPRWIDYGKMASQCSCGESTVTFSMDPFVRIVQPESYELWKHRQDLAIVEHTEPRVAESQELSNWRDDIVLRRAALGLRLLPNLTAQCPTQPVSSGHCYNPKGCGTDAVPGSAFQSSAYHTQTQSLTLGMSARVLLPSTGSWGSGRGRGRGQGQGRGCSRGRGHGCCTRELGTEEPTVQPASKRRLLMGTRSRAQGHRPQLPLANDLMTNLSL", "assay": "qHTS Assay for Inhibitors of Human Jumonji Domain Containing 2E (JMJD2E)", "conditions": "JMJD2E catalytic domain, FDH-coupled NADH fluorescence (FDH is formaldehyde dehydrogenase); series mostly up to 57.1 µM; activity change, negative = inhibition: at the top concentration", "values": [{"molecule": "COc1ccc(Cc2nnc(NC(=O)c3cccc(C)c3)s2)cc1", "Potency": "inconclusive: 39.8 µM [inhibitor, single point]"}, {"molecule": "O=C(O)c1ccc(COc2ccc(/C=N/NC(=O)c3cccs3)cc2)cc1", "activity change, negative = inhibition": "inactive: -7.49%"}, {"molecule": "CCN(CC)CCn1c(N)c(S(=O)(=O)c2ccccc2)c2nc3ccccc3nc21", "Potency": "inconclusive: 31.6 µM [inhibitor, partial curve]"}, {"molecule": "O=C(Nc1nnc(-c2cccs2)o1)C1CC1", "Potency": "inconclusive: 25.1 µM [inhibitor, partial curve]"}, {"molecule": "CCOC(=O)c1cnc(-n2nc(C)cc2C)nc1NCc1ccc2c(c1)OCO2", "Potency": "inconclusive: 35.5 µM [inhibitor, single point]"}, {"molecule": "CC1=NN(c2ccccc2)C(=O)C1C=Nc1ccc(N(C)C)cc1", "note": "(configuration not stated)", "Potency": "inconclusive: 14.1 µM [inhibitor, partial curve]"}, {"molecule": "O=C(CN1CCCC1)N1CCCC(c2ccc(F)cc2)c2ccc(F)cc21", "note": "(configuration not stated)", "Potency": "inconclusive: 28.2 µM [inhibitor, single point]"}, {"molecule": "COC(=O)/C=C/c1ccc(OC(=O)c2ccncc2)cc1", "Potency": "inconclusive: 20 µM [inhibitor, partial curve]"}, {"molecule": "O=c1c2[nH]c3ccc(Cl)cc3c2ncn1CCN1CCCCC1", "activity change, negative = inhibition": "inactive: -22.3%"}, {"molecule": "CCOC(=O)C1CCN(CC(=O)Nc2c(C(=O)OC)[nH]c3ccc(Cl)cc23)CC1", "Potency": "inconclusive: 35.5 µM [inhibitor, single point]"}, {"molecule": "CCNC(=S)NNC(=O)CCn1cc(C)cn1", "activity change, negative = inhibition": "inactive: 4.55%"}, {"molecule": "CCCC(=O)Nc1ncnc2c1ncn2[C@@H]1O[C@H]2COP(=O)(O)O[C@@H]2[C@@H]1OC(=O)CCC", "activity change, negative = inhibition": "inactive: -4.44% [at 25.5 µM]"}, {"molecule": "CCN1C(=O)c2cccc3c(S(=O)(=O)Nc4c(C)n(C)n(-c5ccccc5)c4=O)ccc1c23", "activity change, negative = inhibition": "inactive: 2.65%"}, {"molecule": "CC(C)C(=O)N1CCN(c2ccc(NC(=O)c3ccc(Br)o3)cc2)CC1", "activity change, negative = inhibition": "inactive: 0.0178%"}, {"molecule": "CSc1nnc(-c2ccc(C(F)(F)F)cn2)o1", "Potency": "inconclusive: 28.2 µM [inhibitor, single point]"}, {"molecule": "O=C(O)c1ccccc1C(=O)Nc1ccc(S(=O)(=O)Nc2nccs2)cc1", "Potency": "inactive"}, {"molecule": "CCOC(=O)c1c(NC(=O)C(C)NCc2ccco2)sc2c1CCC(C)C2", "note": "(configuration not stated)", "Potency": "inconclusive: 39.8 µM [inhibitor, single point]"}, {"molecule": "O=C(CN1CCN(C/C=C/c2ccccc2)CC1)NC(=O)NC1CCCCC1", "Potency": "inconclusive: 39.8 µM [inhibitor, single point]"}, {"molecule": "Cc1cc(=O)oc2c(CN(C)Cc3ccccc3)c(O)ccc12", "Potency": "inconclusive: 3.16 µM [inhibitor, full curve]"}, {"molecule": "Cc1ccc(-c2nc(N)sc2CC(=O)OCC(=O)NCC2CCCO2)cc1", "note": "(configuration not stated)", "activity change, negative = inhibition": "inactive: 5.42%"}, {"molecule": "CCN(Cc1ccccc1)c1ccc(/C=N/N=C(N)N)cc1", "Potency": "inconclusive: 31.6 µM [inhibitor, partial curve]"}, {"molecule": "S=c1[nH]nc(-c2ccccc2)n1/N=C/c1cccs1", "Potency": "inconclusive: 22.4 µM [inhibitor, single point]"}, {"molecule": "O=C(O)c1ccc(-c2ccc(O)c(F)c2)cc1", "Potency": "inconclusive: 28.2 µM [inhibitor, single point]"}, {"molecule": "O=C(N/N=C/c1ccccc1OCc1ccccc1)c1cccs1", "Potency": "inconclusive: 28.2 µM [inhibitor, partial curve]"}, {"molecule": "Cc1cccc2sc(N(CCN(C)C)C(=O)/C=C/c3cccs3)nc12", "Potency": "inconclusive: 31.6 µM [inhibitor, partial curve]"}, {"molecule": "C=C(N(C)C)[C@]1(C)C[C@H]1[C@H](NC(=O)CNC(=O)OCc1ccccc1)c1ccccc1", "activity change, negative = inhibition": "inactive: 5.91%"}, {"molecule": "O=C(O)c1cccc(N2C(=O)c3ccc4c5c(ccc(c35)C2=O)C(=O)N(c2cccc(C(=O)O)c2)C4=O)c1", "activity change, negative = inhibition": "inactive: -18.6%"}, {"molecule": "COC(=O)c1c(CSc2ccc(Cl)cc2)noc1C(=O)NCc1ccco1", "activity change, negative = inhibition": "inactive: -2.96%"}, {"molecule": "Cc1ccc2c(c1)nnn2C1CCN(S(=O)(=O)c2ccc(C(=O)N3C(C)CCCC3C)cc2)CC1", "note": "(configuration not stated)", "activity change, negative = inhibition": "inactive: -1.38%"}, {"molecule": "NC(=S)Nc1ccc(Oc2ccc(NC(N)=S)cc2)cc1", "activity change, negative = inhibition": "inactive: -4.62%"}, {"molecule": "O=C(Nc1ccc(O)cc1)c1ccc(C(=O)c2ccccc2)o1", "Potency": "inconclusive: 11.2 µM [inhibitor, partial curve]"}, {"molecule": "COc1ccc(Br)cc1CN(C)CC(=O)Nc1ccccc1Cl", "activity change, negative = inhibition": "inactive: -1.28%"}, {"molecule": "Nc1cc(Cl)c(NC2=NCCN2)c(Cl)c1", "activity change, negative = inhibition": "inactive: -0.102%"}, {"molecule": "O=C(Nc1ccccc1)c1ccc(CN2CCc3ccccc3C2)cc1", "Potency": "inconclusive: 35.5 µM [inhibitor, single point]"}, {"molecule": "Cc1cc(C)n(C(=O)Cc2cn3ccsc3n2)n1", "Potency": "inconclusive: 39.8 µM [inhibitor, single point]"}, {"molecule": "Cc1cc(C[n+]2ccccc2)c2nsnc2c1", "Potency": "inconclusive: 28.2 µM [inhibitor, partial curve]"}, {"molecule": "CCc1nnc(NC(=O)c2sc3nc4c(cc3c2N)CCCCC4)s1", "Potency": "inconclusive: 25.1 µM [inhibitor, partial curve]"}, {"molecule": "COc1ccc(-c2cc(=O)oc3cc(OCc4nn[nH]n4)ccc23)cc1", "Potency": "inconclusive: 35.5 µM [inhibitor, single point]"}, {"molecule": "O=C(Cc1csc(Nc2nc(=S)[nH]c3ccccc23)n1)NCCCN1CCN(c2ccccc2F)CC1", "Potency": "inconclusive: 39.8 µM [inhibitor, single point]"}, {"molecule": "CCCc1cc(=O)n2[nH]c(NCc3ccccc3F)nc2n1", "Potency": "inconclusive: 22.4 µM [inhibitor, partial curve]"}, {"molecule": "CCN(CC)C(=O)Cn1cnc2sc(C(=O)Nc3cc(OC)c(OC)c(OC)c3)c(C)c2c1=O", "activity change, negative = inhibition": "inactive: 1.19%"}, {"molecule": "Cc1cs/c(=N\\N=C2CCCCC2)n1Cc1ccco1", "activity change, negative = inhibition": "inactive: 3.36%"}, {"molecule": "S=c1[nH]c(-c2ccccc2)cn1/N=C/c1ccccc1Br", "activity change, negative = inhibition": "inactive: -24.5%"}, {"molecule": "CCNC(=O)CC1SC(=Nc2cccc3ccccc23)N(C)C1=O", "note": "(configuration not stated)", "Potency": "inconclusive: 35.5 µM [inhibitor, single point]"}, {"molecule": "CC(=O)Nc1cccc(-c2csc(NCc3ccco3)n2)c1", "Potency": "inconclusive: 39.8 µM [inhibitor, single point]"}, {"molecule": "S=C1NCN(C2CCCCC2)CN1CCc1ccccc1", "activity change, negative = inhibition": "inactive: 1.21%"}, {"molecule": "CCOC(=O)c1sc2cccc(F)c2c1N", "Potency": "inconclusive: 31.6 µM [inhibitor, partial curve]"}, {"molecule": "COc1ccccc1/C=C/CN1CC(C)OC(C)C1", "note": "(configuration not stated)", "activity change, negative = inhibition": "inactive: -28.9%"}, {"molecule": "Cc1ccc(-c2nnc3sc(C4COc5ccccc5O4)nn23)cc1", "note": "(configuration not stated)", "activity change, negative = inhibition": "inactive: 3.72%"}, {"molecule": "O=C(N/C(=C/c1cn(-c2ccccc2)nc1-c1ccccc1)C(=O)N1CCOCC1)c1ccc(Cl)cc1Cl", "activity change, negative = inhibition": "inactive: 11.4%"}, {"molecule": "O=C1OCC2OC(O)C(O)C(O)C2OC(=O)c2cc(O)c(O)c(O)c2-c2c(O)c(O)c3oc(=O)c4c(c(O)c(O)c5oc(=O)c2c3c54)-c2c1cc(O)c(O)c2O", "note": "(configuration not stated)", "Potency": "active: 0.562 µM"}, {"molecule": "CCN(CC)CCN1C(=O)c2oc3ccccc3c(=O)c2C1c1cccc(Br)c1", "note": "(configuration not stated)", "activity change, negative = inhibition": "inactive: -7.32%"}, {"molecule": "CCCCC(=O)NNC(=S)NC(=O)c1ccc(C)cc1", "Potency": "inconclusive: 39.8 µM [inhibitor, single point]"}, {"molecule": "CCOC(=O)N1CCN(C(=O)c2ccc3c(c2)N(Cc2ccc(C)cc2)CCS3)CC1", "Potency": "inconclusive: 28.2 µM [inhibitor, partial curve]"}, {"molecule": "Cc1ccc(S(=O)(=O)CCc2nnc(NC(=O)CCl)s2)cc1C", "activity change, negative = inhibition": "inactive: 6.01%"}, {"molecule": "CCc1nc(N2CCCC(C)C2)c2oc3ccccc3c2n1", "note": "(configuration not stated)", "Potency": "inconclusive: 31.6 µM [inhibitor, partial curve]"}, {"molecule": "CC1=CC(c2ccccc2)=Nc2ccc(C)cc2N1", "Potency": "inconclusive: 25.1 µM [inhibitor, single point]"}, {"molecule": "Clc1ccc(/C=N/NC2=Nc3cccc4cccc2c34)cc1", "activity change, negative = inhibition": "inactive: 8.04%"}, {"molecule": "CCOC(=O)N1CCN(C(=O)c2cc3c(=O)[nH]c4ccccc4c3s2)CC1", "Potency": "inconclusive: 28.2 µM [inhibitor, partial curve]"}, {"molecule": "O=c1c(Cl)c(N/N=C/c2ccc(Br)cc2)cnn1-c1ccccc1", "Potency": "inconclusive: 31.6 µM [inhibitor, single point]"}, {"molecule": "COc1cc(/C=N/NC(=O)CCc2ccccc2)ccc1O", "Potency": "inconclusive: 25.1 µM [inhibitor, partial curve]"}, {"molecule": "CN(C)c1oc(-c2ccccc2Cl)nc1P(=O)(c1ccccc1)c1ccccc1", "Potency": "inconclusive: 35.5 µM [inhibitor, partial curve]"}, {"molecule": "C=CCSc1nnc(NC(=O)c2cccc(S(=O)(=O)N(C)c3ccccc3)c2)s1", "Potency": "inconclusive: 35.5 µM [inhibitor, single point]"}, {"molecule": "O=C(Cn1nnc(-c2ccccc2Cl)n1)N/N=C/c1ccc2c(c1)OCO2", "Potency": "inconclusive: 28.2 µM [inhibitor, single point]"}, {"molecule": "C=CCNc1nc2ccccc2c(=O)[nH]1", "Potency": "inconclusive: 25.1 µM [inhibitor, partial curve]"}, {"molecule": "N#C/C(=C\\c1ccc([N+](=O)[O-])o1)c1nc2ccccc2[nH]1", "Potency": "inconclusive: 28.2 µM [inhibitor, single point]"}, {"molecule": "CCn1c2ccccc2c2nc3ccccc3nc21", "Potency": "inconclusive: 39.8 µM [inhibitor, single point]"}, {"molecule": "Cc1ccccc1-n1c2nc(=O)n(C)c(=O)c-2cc2ccccc21", "Potency": "inconclusive: 28.2 µM [inhibitor, partial curve]"}, {"molecule": "CS(=O)(=O)/C(C#N)=C/c1c(-c2ccccc2)nc2n1CCS2", "Potency": "inconclusive: 22.4 µM [inhibitor, partial curve]"}, {"molecule": "COc1ccc2nc(N/C(N)=N/S(C)(=O)=O)nc(C)c2c1", "Potency": "inconclusive: 31.6 µM [inhibitor, partial curve]"}, {"molecule": "CCNc1nc(N)nc(-c2cc(Cl)ccc2O)n1", "Potency": "inconclusive: 28.2 µM [inhibitor, partial curve]"}, {"molecule": "CCOC(=O)c1c(NC(=O)c2cc3n(n2)C(C(F)(F)F)CC(c2ccccc2)N3)sc(C)c1C", "note": "(configuration not stated)", "Potency": "inconclusive: 3.16 µM [inhibitor, partial curve]"}]}]}
